From PubChem BioAssay (Tox21)
Inconclusive results, whose numbers are uncertain, are shown with a selection of clear calls. For part of these data: Potencies of inconclusive entries are doubtful fits and often do not repeat. Activity calls are given as the source filed them. Unless noted, calls follow the shape of the full dose curve.

Tests used:
[1] = qHTS assay for small molecule agonists of the p53 signaling pathway (AID 651631); details: HCT-116 p53RE-bla reporter, beta-lactamase FRET ratio, 16 h; activation: at 73.3 µM (top of the series) unless noted; also: nearly all actives have a fitted effect of over 15% in size; as to activation: % is scaled to controls: 0 for no effect and ±100 for the full control effect
Method in brief: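 Agonist mode screen using a stably integrated beta-lactamase gene under p53 response elements in HCT-116 cells. Compound exposure lasts 16 h at 37 °C; fluorescence intensity is measured following 2 h FRET substrate loading.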

[2] = qHTS assay for small molecules that induce genotoxicity in human embryonic kidney cells expressing luciferase-tagged ATAD5 (AID 651632; active = well fitted curve in the direction sought with a large enough effect in the repeat runs; inconclusive = weak or mixed curves; inactive = no such curve, though single readings can be large; an effect the other way counts as inactive or inconclusive; also: nearly all actives have a fitted effect of over 15% in size; as to activation: % is scaled to controls: 0 for no effect and ±100 for the full control effect)
Method in brief: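 DMSO vehicle served as the control. HEK293T reporter cells, 16 hr at 37C, then 30 min Amplite at room temperature; ATAD5 induction is measured as luciferase activity.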

[3] = qHTS assay for identifying genotoxic compounds that show differential cytotoxicity against isogenic chicken DT40 cell lines with known DNA damage response pathways - wild type cell line (AID 743012; active = well fitted curve in the direction sought with a large enough effect in the repeat runs; inconclusive = weak or mixed curves; inactive = no such curve, though single readings can be large; an effect the other way counts as inactive or inconclusive; also: nearly all actives have a fitted effect of over 60% in size); details: DT40 wild type chicken cells viability, CellTiter-Glo, 40 h; activity change, negative = cytotoxicity: at 68.4 µM (top of the series) unless noted
Method in brief: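 Viability of DNA repair-proficient chicken DT40 cells was assessed by CellTiter-Glo luminescence following 40 h compound exposure at 37 C/5% CO2.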

[4] = qHTS assay for small molecule agonists of the p53 signaling pathway - cell viability (AID 651633); also: nearly all actives have a fitted effect of over 30% in size; as to activity change, negative = cytotoxicity: % is scaled to controls: 0 for no effect and ±100 for the full control effect
Method in brief: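 p53RE-bla cells, seeded at 4,000 per well and rested 5 h at 37 C/5% CO2, received compounds in DMSO for 16 h at 37 C. CellTiter-Glo was then added, and luminescence was read after 30 min at room temperature to gauge cytotoxicity.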

[5] = qHTS assay for small molecule disruptors of the mitochondrial membrane potential - cell viability (AID 720634); also: nearly all actives have a fitted effect of over 20% in size
Method in brief: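 Viability of HepG2 cells is scored from ATP content by luminescence; cells are exposed to compound for 1 hr at 37 C and 5% CO2, then dosed with m-MPI dye before the CellTiter-Glo reagent.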

[6] = qHTS assay for small molecule disruptors of the mitochondrial membrane potential (AID 720635; active = well fitted curve in the direction sought with a large enough effect in the repeat runs; inconclusive = weak or mixed curves; inactive = no such curve, though single readings can be large; an effect the other way counts as inactive or inconclusive); details: HepG2 mitochondrial membrane potential, Mito-MPS dye ratio; ratio activity, negative = MMP loss: at 83.2 µM (top of the series) unless noted
Method in brief: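 HepG2 cells (2,000/well) attached overnight at 37C, then took compound for 1 hr at 37C, 5% CO2. Mito-MPS dye was added for 30 min; fluorescence was read at 490/535 nm (monomers) and 540/590 nm (aggregates).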

[7] = molecular target: Glucocorticoid receptor (Homo sapiens) (UniProt P04150); assay: qHTS assay to identify small molecule antagonists of the glucocorticoid receptor (GR) signaling pathway (AID 720692; active = well fitted inhibition curve with a large enough effect in the signal ratio in the repeat runs, not every such curve was filed as active; inconclusive = weak or mixed curves, or effect the other way; inactive = no such curve, though single readings can be large or run the other way; the % refers to the signal ratio; as to activity change, negative = inhibition: % is scaled to controls: 0 for no effect and ±100 for the full control effect); details: GR-bla HeLa, beta-lactamase FRET ratio, dexamethasone-stimulated, 18 h; activity change, negative = inhibition: at 58.5 µM (top of the series) unless noted
UniProt P04150, sequence (P04150 whole entry, looked up): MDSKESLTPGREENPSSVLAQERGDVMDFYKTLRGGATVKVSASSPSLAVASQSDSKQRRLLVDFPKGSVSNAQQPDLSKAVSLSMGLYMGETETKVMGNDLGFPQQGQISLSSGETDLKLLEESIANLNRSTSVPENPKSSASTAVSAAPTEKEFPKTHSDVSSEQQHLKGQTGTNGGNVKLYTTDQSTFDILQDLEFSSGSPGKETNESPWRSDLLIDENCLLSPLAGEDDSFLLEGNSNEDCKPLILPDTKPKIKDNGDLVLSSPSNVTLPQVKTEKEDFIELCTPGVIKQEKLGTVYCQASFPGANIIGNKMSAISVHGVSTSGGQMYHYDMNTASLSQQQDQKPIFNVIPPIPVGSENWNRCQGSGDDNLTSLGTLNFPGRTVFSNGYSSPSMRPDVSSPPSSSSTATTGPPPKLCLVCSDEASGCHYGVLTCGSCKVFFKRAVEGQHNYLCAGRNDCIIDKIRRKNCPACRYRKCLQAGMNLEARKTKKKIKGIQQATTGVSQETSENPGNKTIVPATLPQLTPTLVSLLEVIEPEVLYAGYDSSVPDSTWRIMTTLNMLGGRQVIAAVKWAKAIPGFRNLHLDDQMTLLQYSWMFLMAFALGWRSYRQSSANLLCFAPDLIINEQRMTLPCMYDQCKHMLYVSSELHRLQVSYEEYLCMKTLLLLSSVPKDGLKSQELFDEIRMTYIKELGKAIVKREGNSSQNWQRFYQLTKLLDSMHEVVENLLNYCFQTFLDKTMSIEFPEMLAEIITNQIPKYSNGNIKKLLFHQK
Method in brief: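 In a 1536-well cell format, compounds were added 4 h after seeding GR-bla HeLa cells, together with dexamethasone at 5 nM final; reporter activity was measured by FRET-substrate fluorescence following 18 h at 37 C.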

[8] = qHTS assay for small molecules that induce genotoxicity in human embryonic kidney cells expressing luciferase-tagged ATAD5 - cell viability (AID 651634); also: nearly all actives have a fitted effect of over 25% in size
Method in brief: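 Here HEK293T cells with the ATAD5 luciferase reporter are incubated with test compounds for 15.5 hr, and cytotoxicity is then gauged by measuring protease activity in live cells using fluorescence.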

[9] = molecular target: Glucocorticoid receptor (Homo sapiens) (UniProt P04150); assay: qHTS assay to identify small molecule agonists of the glucocorticoid receptor (GR) signaling pathway (AID 720691; active = well fitted activation curve with a large enough effect in the signal ratio in the repeat runs, not every such curve was filed as active; inconclusive = weak or mixed curves, or effect the other way; inactive = no such curve, though single readings can be large or run the other way; the % refers to the signal ratio); details: GR-bla HeLa, beta-lactamase reporter ratio, 18 h; activation: at 62.4 µM (top of the series) unless noted
Method in brief: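 Compounds in DMSO, alongside positive controls, were added to GR-bla HeLa reporter cells and incubated 18 h at 37 C; GRE-driven beta-lactamase was detected by fluorescence after 2 h with FRET substrate at room temperature.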

[10] = qHTS assay to identify small molecule antagonists of the glucocorticoid receptor (GR) signaling pathway - cell viability counter screen (AID 720693; active = well fitted curve in the direction sought with a large enough effect in the repeat runs; inconclusive = weak or mixed curves; inactive = no such curve, though single readings can be large; an effect the other way counts as inactive or inconclusive; also: nearly all actives have a fitted effect of over 55% in size); details: GR-bla HeLa viability, CellTiter-Glo luminescence, 18 h, with 5 nM dexamethasone present; viability change, negative = cytotoxic: at 58.5 µM (top of the series) unless noted
[11] = qHTS assay for identifying genotoxic compounds that show differential cytotoxicity against isogenic chicken DT40 cell lines with known DNA damage response pathways - Rad54/Ku70 mutant cell line (AID 743015; active = well fitted curve in the direction sought with a large enough effect in the repeat runs; inconclusive = weak or mixed curves; inactive = no such curve, though single readings can be large; an effect the other way counts as inactive or inconclusive; also: nearly all actives have a fitted effect of over 60% in size); details: DT40 Rad54/Ku70 mutant viability, CellTiter-Glo, 40 h; activity change, negative = cytotoxicity: at 66.8 µM (top of the series) unless noted
Potency is read from the fitted curve at half-maximal effect; tags tell the direction and shape of the fitted curve or compound fluorescence and quenching.

In the case of `COP(=O)(OC)Oc1ccc([N+](=O)[O-])cc1`, the Potency [1] is reported as inconclusive: 61.1 µM [falling, partial curve], the Potency [2] is reported as “inactive” and the Potency [3] is reported as inconclusive: 68.6 µM [cytotoxic, single point].
With `Cc1ccccc1OP(=O)(Oc1ccccc1C)Oc1ccccc1C` the Potency [1] was inconclusive: 61.4 µM, the Potency [4] was inconclusive: 68.9 µM [cytotoxic, single point] and the Potency [5] was active: 9.73 µM. The Potency [6] was active: 17.3 µM, the Potency [7] was active: 27.6 µM and the Potency [3] was inconclusive: 68.9 µM [cytotoxic, single point].
In the case of `O=[Se]=O`, the Potency [1] is reported as inconclusive: 34.1 µM [activator, single point], the Potency [8] is reported as active: 0.764 µM and the Potency [5] is reported as inconclusive: 21.5 µM [cytotoxic, partial curve, poor fit]. For the same molecule, the Potency [6] was inconclusive: 19.2 µM [inhibitor, partial curve].
For `Cc1cc(C2CC2)nc(Nc2ccccc2)n1`, the Potency [1] was “inactive”, the Potency [2] was “inactive” and the Potency [3] was active: 24.3 µM.
For `CC1(c2ccc(Oc3ccccc3)cc2)OC(=O)N(Nc2ccccc2)C1=O` (centres undefined), the Potency [1] was inconclusive: 30.8 µM [falling, partial curve], the Potency [4] was inconclusive: 0.548 µM [cytotoxic, full curve, poor fit] and the Potency [5] was inconclusive: 5.48 µM [cytotoxic, partial curve, poor fit]. For the same molecule, the Potency [6] was active: 3.88 µM, the Potency [9] was inconclusive: 43.9 µM [falling, partial curve] and the Potency [7] was inconclusive: 55.3 µM [cytotoxic, single point]. For the same molecule, the Potency [10] was active: 22 µM.
In the case of `Cc1cc(C)cc(OP(=O)(Oc2cc(C)cc(C)c2)Oc2cc(C)cc(C)c2)c1`, the Potency [1] is reported as “inactive”, the Potency [4] is reported as “inactive” and the Potency [5] is reported as inconclusive: 39.2 µM [cytotoxic, partial curve]. For the same molecule, the Potency [6] was active: 49.3 µM and the Potency [7] was inconclusive: 28 µM [inhibitor, partial curve].
In the case of `Oc1ccc(C(=C(Cl)Cl)c2ccc(O)cc2)cc1`, the Potency [1] is reported as inconclusive: 61 µM, the Potency [4] is reported as inconclusive: 68.5 µM [cytotoxic, single point] and the Potency [5] is reported as inconclusive: 54.4 µM [cytotoxic, partial curve, poor fit]. For the same molecule, the Potency [6] was active: 17.2 µM, the Potency [9] was inconclusive: 61.5 µM [cytotoxic, single point] and the Potency [7] was inconclusive: 21.8 µM [inhibitor, single point].
For `Clc1cc(C(Cl)(Cl)Cl)cnc1Cl`, the Potency [1] was inconclusive: 27.3 µM [activator, partial curve, poor fit], the Potency [2] was inconclusive: 24.3 µM [activator, single point] and the Potency [6] was inconclusive: 1.22 µM [activator, full curve]. The Potency [10] was inconclusive: 54.9 µM [cytotoxic, single point].
In the case of `C/C(=C\c1ccccc1)[N+](=O)[O-]`, the Potency [1] is reported as inconclusive: 9.69 µM [cytotoxic], the Potency [4] is reported as inconclusive: 15.4 µM [cytotoxic, partial curve, poor fit] and the Potency [6] is reported as active: 30.6 µM. For the same molecule, the Potency [9] was inconclusive: 43.6 µM [rising, single point], the Potency [7] was inconclusive: 15.5 µM [cytotoxic] and the Potency [10] was active: 17.4 µM.
With `O=C(NCc1cccnc1)Nc1ccc([N+](=O)[O-])cc1` the Potency [1] was “inactive”, the Potency [2] was “inactive” and the Potency [6] was active: 24.3 µM. The Potency [11] was inconclusive: 68.6 µM [cytotoxic, single point].
For `OC(O)C(Cl)(Cl)Cl`, the Potency [1] was “inactive”, the Potency [4] was “inactive” and the Potency [6] was inconclusive: 6.68 µM [activator, full curve, poor fit].
In the case of `IC(I)=C(I)I`, the Potency [1] is reported as active: 12.2 µM, the Potency [4] is reported as active: 48.6 µM and the Potency [8] is reported as active: 27.3 µM. For the same molecule, the Potency [6] was active: 4.33 µM, the Potency [7] was inconclusive: 19.5 µM and the Potency [10] was inconclusive: 21.9 µM [cytotoxic, single point]. For the same molecule, the Potency [3] was active: 0.611 µM.
With `O=C(OC1CCCCC1)c1ccccc1C(=O)OC1CCCCC1` the Potency [1] was inconclusive: 64.4 µM [falling, partial curve, poor fit], the Potency [4] was “inactive” and the Potency [5] was inconclusive: 12.9 µM [cytotoxic, partial curve, poor fit]. The Potency [6] was active: 28.8 µM and the activity change, negative = inhibition [7] was inconclusive: -12.2% [at 78.9 µM].
For `CC(=O)/C=C/c1ccc2c(c1)OCO2`, the Potency [1] was active: 30.8 µM, the Potency [4] was “inactive” and the Potency [6] was “inactive”. For the same molecule, the activity change, negative = inhibition [7] was inconclusive: -29.7% [at 78.9 µM], the Potency [10] was inconclusive: 62 µM [cytotoxic, single point] and the Potency [3] was inconclusive: 77.4 µM [cytotoxic, single point].
